Out of some 310,000 compounds screened, about 2,200 (0.71%) showed an effect of 50% or more. The effect is printed as a negative number. This is one part of the list.
Molecular target: human ether-à-go-go-related gene (hERG) potassium channel (human, UniProt Q12809)
Test: primary screen, population patch clamp on CHO cells stably expressing hERG

human ether-à-go-go-related gene (hERG) potassium channel, sequence (Q12809 whole entry, looked up): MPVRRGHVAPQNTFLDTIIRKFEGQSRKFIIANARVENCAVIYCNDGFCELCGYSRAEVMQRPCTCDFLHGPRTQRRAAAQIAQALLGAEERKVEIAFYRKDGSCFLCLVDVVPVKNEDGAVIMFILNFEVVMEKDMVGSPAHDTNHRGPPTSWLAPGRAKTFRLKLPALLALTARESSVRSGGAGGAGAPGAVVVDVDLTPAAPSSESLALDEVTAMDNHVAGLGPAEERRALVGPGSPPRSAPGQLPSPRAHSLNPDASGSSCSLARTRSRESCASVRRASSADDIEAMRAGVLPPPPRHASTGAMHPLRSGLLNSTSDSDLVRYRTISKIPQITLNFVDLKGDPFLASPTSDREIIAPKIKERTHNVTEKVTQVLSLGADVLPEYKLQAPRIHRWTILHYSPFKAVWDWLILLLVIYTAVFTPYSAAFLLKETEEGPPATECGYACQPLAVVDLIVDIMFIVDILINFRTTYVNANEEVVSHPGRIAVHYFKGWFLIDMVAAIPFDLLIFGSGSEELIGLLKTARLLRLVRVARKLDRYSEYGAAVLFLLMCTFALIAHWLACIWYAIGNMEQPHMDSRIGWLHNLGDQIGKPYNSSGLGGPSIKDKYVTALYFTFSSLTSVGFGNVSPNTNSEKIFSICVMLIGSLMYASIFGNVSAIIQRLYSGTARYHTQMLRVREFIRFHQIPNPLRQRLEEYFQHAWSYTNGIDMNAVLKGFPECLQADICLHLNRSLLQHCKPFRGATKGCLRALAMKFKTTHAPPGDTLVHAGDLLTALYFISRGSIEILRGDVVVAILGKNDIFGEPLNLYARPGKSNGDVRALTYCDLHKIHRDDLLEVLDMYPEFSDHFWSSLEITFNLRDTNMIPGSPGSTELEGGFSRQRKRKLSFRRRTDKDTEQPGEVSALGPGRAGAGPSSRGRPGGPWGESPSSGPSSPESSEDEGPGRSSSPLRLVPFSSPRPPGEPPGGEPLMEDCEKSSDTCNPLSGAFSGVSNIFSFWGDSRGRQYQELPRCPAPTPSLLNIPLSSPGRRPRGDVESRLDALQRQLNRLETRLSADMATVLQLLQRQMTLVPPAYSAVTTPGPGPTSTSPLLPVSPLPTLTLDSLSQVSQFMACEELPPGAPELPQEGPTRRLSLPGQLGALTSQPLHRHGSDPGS

| SMILES | hERG current change (%, negative = inhibition) at 1uM |
| --- | --- |
| CSc1nc(SC)c2c3c(oc2n1)COC(C)(C)C3 | 10.5% |
| O=C(OCC(=O)N1CCc2ccccc21)c1ccncc1 | 0.712% |
| CCN1C(=C(C#N)C#N)C=Cc2ccccc21 | 15.9% |
| Cl.O=C(CCc1ccccc1)OCCN1CCOCC1 | 9.99% |
| COc1ccc(CCN(C)C2CC(=O)N(c3ccccc3)C2=O)cc1OC (stereo not shown) | 5.35% |
| O=C(Oc1cccc(C(=S)N2CCOCC2)c1)c1cccc(Cl)c1 | 17.5% |
| O=C(O)CC1(CC(=O)Nc2ccc3c(c2)OCCCO3)CCCCC1 | 6.45% |
| Cc1cc(S(=O)(=O)Nc2ccc(C(=O)NCCCN3CCCC3=O)cc2)ccc1F | 8.54% |
| Cc1ccc(S(=O)(=O)NCCCCCC(=O)Nc2cccc(C)c2)cc1 | 12.1% |
| CC1CCCC(NCC(O)COC(c2ccc(F)cc2)c2ccc(F)cc2)C1C (stereo not shown) | -6.03% |
| O=C(Cn1cnc2c(nnn2-c2ccccc2)c1=O)NCc1ccco1 | -0.107% |
| COc1ccc(N=Cc2nc(-c3ccccc3)oc2OC(=O)c2ccccc2)cc1 | 9.59% |
| COc1ccc(C(=O)N2CCC(c3ccccc3)CC2)c(OC)c1OC | 7.25% |
| Cc1cc(C(=O)Cn2nnc3ccccc3c2=O)c(C)n1Cc1cccs1 | 2.27% |
| CCCC(=O)NC(c1ccc(Cl)cc1Cl)c1ccc2cccnc2c1O (stereo not shown) | 3.54% |
| COc1ccccc1C1(O)CCN(CC(=O)Nc2c(C)nn(C)c2C)CC1 | 12.3% |
| Cn1cnc(S(=O)(=O)NC2CCN(Cc3c(F)cccc3Cl)CC2)c1 | 0.971% |
| Cc1cc(C)c2c(NC(=S)NC(=O)c3ccccc3)nn(C)c2n1 | 5.51% |
| COc1ccc(CNC(=O)COc2ccc([N+](=O)[O-])cc2)cc1 | -23% |
| COc1ccc(S(=O)(=O)N2CCC(C(=O)NC3(C)CCS(=O)(=O)C3)CC2)cc1OC (stereo not shown) | 20.2% |
| Cc1ccc(/C=C/C(=O)Nc2ccc(S(=O)(=O)Nc3cc(C)nc(C)n3)cc2)cc1 | 13.5% |
| Cc1cc(C)c(OCC(=O)Nc2nnn(C)n2)c(Br)c1 | 10.7% |
| COc1ccc(NC(=O)CN2CCC(NC(=O)c3ccc(OC)cc3)CC2)cc1 | -17.1% |

| SMILES | hERG current change (%, negative = inhibition) at 1uM |
| --- | --- |
| c1ccc(Oc2cc(-n3cncn3)ncn2)cc1 | 4.41% |
| CCOC(=O)C1=C(C)N=C2SCCC(=O)N2C1c1ccc(OC)cc1 (stereo not shown) | 15.4% |
| O=C(CSc1nnnn1-c1ccccc1)N1CCc2ccccc21 | 10.1% |
| O=C1CC(c2ccco2)CC(O)=C1C=NCC1CCNCC1 (stereo not shown) | 13.4% |
| CC(C)(c1ccc(O)cc1)c1ccc(O)cc1 | 7.3% |
| O=C(N/C=C/n1cnc2cc(C(F)(F)F)ccc21)c1ccccc1F | 10.9% |
| COc1cc(C(C)=O)ccc1OCC(=O)c1cc(C)n(C2CC2)c1C | 10.1% |
| Br.CCSC(=Nc1ccccc1)N1CCOCC1 | 12.8% |
| CCOc1ccc(N(CC(=O)NCc2ccco2)S(C)(=O)=O)cc1 | 12.2% |
| C=CCN1C=C/C(=C\C=C(C#N)C#N)c2ccccc21 | -10.9% |
| COc1cccc(C(C)NC(=O)c2c(F)cccc2Cl)c1 (stereo not shown) | 4.36% |
| N#Cc1ccsc1NC(=O)CSc1ncn[nH]1 | 5.49% |
| CNC(=O)c1ccc(-n2cccn2)nc1 | 10.9% |
| CC(Oc1ccc([N+](=O)[O-])cc1Cl)C(=O)Nc1ccc(C(N)=O)cc1 (stereo not shown) | 6.23% |
| O=C(O)c1cc(O)ccc1NC(=O)C1CCCO1 (stereo not shown) | 5.02% |
| CN(C)c1ccc(/C=N\NC(=O)c2csnn2)cc1 | 15% |
| Cc1ccc2c(c1)N(CC(=O)NCc1cccs1)C(=O)CO2 | 9.71% |
| CCOC(=O)N1CCN(C(=O)C2CCN(C(=O)c3ccc([N+](=O)[O-])cc3)CC2)CC1 | -26.9% |
| CCOC(=O)COc1cccc2c(=O)n(CC(=O)NCc3ccc(F)cc3)ccc12 | 11% |
| COc1ccc(S(=O)(=O)N2CCCCC2C(=O)O)cc1OC (stereo not shown) | 23.4% |
| COc1ccccc1CNC(=O)CSc1ccc(-c2cccc([N+](=O)[O-])c2)nn1 | -2.8% |
| O=C(CN1CCCc2ccccc21)NC(=O)NC1CCCCC1 | -20.9% |
| C/C(Cc1ccccc1)=N\NC(=O)CNC(=O)c1ccc2c(c1)OCCO2 | 6.84% |

| SMILES | hERG current change (%, negative = inhibition) at 1uM |
| --- | --- |
| Cc1ccccc1C(=O)N1CCC(C(=O)N2CCCc3ccccc32)CC1 | 3.32% |
| O=C(c1ccc(-c2cccc(C(F)(F)F)c2)o1)N1CCN(c2ccccc2O)CC1 | 13.7% |
| CCN(CC(=O)Nc1cc(Cl)ccc1C)C(=O)COc1ccccc1F | 14.4% |
| COCCN1C(=O)N[C@@H](c2cccs2)C(C(=O)OC)=C1C | 14.3% |
| CC(=O)Oc1cccc(/C=c2\sc3nc(-c4ccco4)nn3c2=O)c1 | 16.2% |
| Cc1n[nH]c(=O)nc1NCc1ccc(Cl)cc1 | 9.59% |
| Cc1cccc(-n2nc([N+](=O)[O-])c(=NC3CCN(Cc4ccccc4)CC3)n2O)c1 | -55.4% |
| O=c1c2cn[nH]c2nc(SCc2ccc3c(c2)OCCO3)n1-c1ccccc1 | 9.07% |
| O=C(NNC(=O)C1CCN(Cc2ccccc2)CC1)c1cccc(Cl)c1 | 8.3% |
| Cc1cc(S(=O)(=O)N2CCOCC2)ccc1OCC(=O)Nc1cccc(C(F)(F)F)c1 | 20% |
| COCCNC(=O)C1Cc2c(ccc3ccccc23)O1 (stereo not shown) | 1.33% |
| CCOC(=O)C(NCCc1ccccc1)(NC(=O)CC)C(F)(F)F (stereo not shown) | 3.41% |
| O=C(C1CCCN(S(=O)(=O)Cc2ccccc2)C1)N1CCCCC1 (stereo not shown) | 5.51% |
| Cc1cc(C)c(C)c(S(=O)(=O)N2CCSCC2)c1C | 13.9% |
| O=C(Nc1cccc(F)c1)c1ccc(S(=O)(=O)N2CCCCC2)cc1 | 17.7% |
| CC1=NN(c2ccc(S(=O)(=O)O)cc2Cl)C(=O)C1 | 12.4% |
| O=C1C2(c3ccccc3)CN(CCCO)CC1(c1ccccc1)CN(CCCO)C2 | -21.1% |
| O=C(CSc1ccc2c(c1)OCCO2)Nc1ccc(Cl)cn1 | 20.4% |
| CCOC(=O)c1sc(NCc2ccco2)c(-c2nc3ccccc3s2)c1N | 3.15% |
| Cc1ccc(NC(=O)c2ccncc2)cc1S(=O)(=O)N(C)C | 0.0196% |
| CCCC(=O)N(CCN1CCOCC1)c1nc2cc(C)c(C)cc2s1.Cl | 8.35% |
| O=C(CCn1nnnc1CN1CCOCC1)N1CCC(c2cccc(Cl)c2)C1 (stereo not shown) | 1.82% |
| Cc1cc(C)c(C(=O)N2CCC3(CC2)OCCO3)c(C)c1 | 15.3% |

| SMILES | hERG current change (%, negative = inhibition) at 1uM |
| --- | --- |
| CCN(CC)CC.COc1cccc(-n2c(=S)sc3c(=O)n(-c4ccccc4OC)c(=S)[nH]c32)c1 | 14.7% |
| COC(=O)CN1C(=O)COc2ccc(S(=O)(=O)NCc3ccc(Cl)cc3)cc21 | -4.94% |
| CC1CCN(C(=O)Cn2nnc(-c3ccc([N+](=O)[O-])cc3)n2)CC1 | -8.27% |
| Cc1nc2ccc(NC(=O)NCCCO)cc2s1 | 4.95% |
| NC(=O)c1cc(S(=O)(=O)NCc2cccs2)cs1 | 12.5% |
| N#CCCN1CCC(NC(=O)OCc2ccccc2)CCC1=O (stereo not shown) | -9.77% |
| CSCCC(NC(=O)c1ccccc1Cl)C(=O)NC1CCN(Cc2ccccc2)CC1 (stereo not shown) | -15.8% |
| N#C/C(=C/c1ccc(N2CCCC2)c([N+](=O)[O-])c1)c1nc2ccccc2[nH]1 | 11% |
| C/C=C/c1ccc(OCC(=O)Nc2ccc(C(N)=O)cc2)c(OC)c1 | 11.5% |
| COc1ccc(Nc2nc(CC(C)=O)ns2)cc1OC | 5.22% |
| Cc1c(O)cc2n(c1=O)-c1ccc(Cl)cc1C2(C)C | 13% |
| CCc1ccc2[nH]c(=O)c(C(c3nnnn3Cc3ccco3)N3CCC(C)CC3)cc2c1 (stereo not shown) | 2.95% |
| CCCOc1ccc(N2C(=O)CC(NCCCN3CCC(C(N)=O)CC3)C2=O)cc1 (stereo not shown) | -12.5% |
| O=C(COc1ccc(S(=O)(=O)NC2CCCCC2)cc1)NCC1CCCO1 (stereo not shown) | 8.78% |
| O=C(CSc1ccc(-c2cccnc2)nn1)Nc1ccc(F)cc1 | 1.22% |
| CCN(CC)S(=O)(=O)c1ccc(N2CC(C(=O)N3CCOCC3)CC2=O)cc1 (stereo not shown) | 2.06% |
| Cc1cccc(NC(=O)C(=O)NCC2CCCN2S(=O)(=O)c2cccs2)c1C (stereo not shown) | 13.7% |
| O=C(NCc1ccccc1CN1CCCC1)C1CCN(S(=O)(=O)c2ccc(Cl)cc2)CC1 | -28.5% |
| O=S1(=O)N=C(N/N=C/C=C/c2ccccc2)c2ccccc21 | 7.24% |
| Cc1occc1C(=O)NNC(=O)CN1C(=O)NC(C)(c2ccccc2)C1=O (stereo not shown) | 16.9% |
| CCCCCCOC(=O)NCC(O)c1ccccc1 (stereo not shown) | 2.22% |
| O=C(C1CCCN(S(=O)(=O)c2cccs2)C1)N1CCN(C2CCCCC2)CC1 (stereo not shown) | 3.62% |
